A number of entries come with more than one value. They are shown here; other results are not. An entry can have further records. Results that share an entry are repeats across runs, samples, wells, individuals or studies. Signs of the kind (2×) stand for listed records that agree. Dates in brackets are months of testing.
Tested on: 677734-321-R-J1-PDC complex spheroid viability
Test: Anticancer human tumor 677734-321-R-J1-PDC patient-derived soft tissue sarcoma cell line growth inhibition [POLQ]
Details: for viability, T/C: stronger effect = lower value; for IC50: compound alone
Method: Multicellular complex tumor spheroid response to Polymerase (POL) inhibitors (novobiocin, ART-558, RP6685) in combination with a variety of drugs and investigational agents in selected tumor cell lines
The POL inhibitors (novobiocin, ART-558, and RP6685) were evaluated both individually and in combination with standard of care and investigational anticancer small molecules within a complex spheroid model of solid tumors. . Complex spheroids include a stromal component modeled by human endothelial cells (HUVEC) and fibroblasts modeled by human mesenchymal stem cells (MSCs). The concentration ranges selected for each drug and investigational agent were based upon clinically achievable concentrations if the clinical Cmax of the agent was known.
Compounds. The drugs and investigational agents: novobiocin (NSC847541), ART-558 (NSC835418), RP-6685 (NSC848927), peposertib (NSC802822), ceralasertib (NSC780249), elimusertib (NSC800525), camonsertib (NSC841442), AZD-1390 (NSC803789), olaparib (NSC753686), talazoparib (NSC767125), rucaparib (NSC756644), sotorasib (NSC818433), MRTX-1133 (NSC836407), SN-38 (NSC673596), topotecan (NSC609699), epotoside (NSC141540), doxorubicin (NSC123127), gemcitabine (NSC613327), 5-fluorouracil (NSC19893), paclitaxel (NSC125973), vemurafenib (NSC761431), MSA-2 (NSC828583), SN-011 (NSC837082), adavosertib (NSC754352), prexasertib (NSC758257), carboplatin (NSC241240) and oxaliplatin (NSC266046), were obtained from the National Cancer Institute (NCI) Developmental Therapeutics Program Chemical Repository (21). The FDA-approved anticancer drug set is available from the Developmental Therapeutics Program at https://dtp.cancer.gov/organization/dscb/obtaining/. […] The stock solutions were prepared in dimethyl sulfoxide (DMSO, Sigma-Aldrich, St. Louis, MO, cat. D2650), except for the platinum compounds which were prepared in saline (Quality Biological, Gaithersburg, MD, cat. 114-055-101), at 800-fold the tested concentration and stored at -70 degrees C prior to their use. All drugs and investigational agents were tested over a range starting from a high concentration at or near the clinical Cmax and decreasing in half-log increments. If the clinical Cmax for an agent had not been determined, the highest concentration tested was 10 microM, except for SN-38, which was tested at a high concentration of 1 microM.
Cell Culture. All cells were maintained in an incubator at 37 degrees C and 5% CO2 with 95% humidity. The PDC lines were cultured according to standard operating procedures established by the NCI PDMR (https://pdmr.cancer.gov). Table 3 of the manuscript, lists the cell lines along with the number of the three cell types plated to form the mct-spheroids and media for tumor cell growth. After thawing, all PDC lines, except 997537-175-T-J1-PDC and 415267-285-R-J2-PDC, were cultured in Matrigel-coated flasks prepared with a working solution of 1X Ham's F-12 nutrient mix, without supplementation (Thermo Fisher Scientific, cat. 11765054), 100 U/mL penicillin-streptomycin (Thermo Fisher Scientific, cat. 15140122), and 2.5% Matrigel (Corning Inc., Corning, NY, cat. 354248) for the first three passages. The two PDC lines 997537-175-T-J1-PDC and 415267-285-R-J2-PDC were cultured on uncoated flasks. The 857933-349-R-J2-PDC line was cultured in 6C/Colon 1B media containing advanced DMEM/F-12 (Thermo Fisher Scientific, cat. 12634028), 10 mM HEPES (Thermo Fisher Scientific, cat. 15630080), 1X GlutaMAX supplement (Thermo Fisher Scientific, cat. 35050061), 0.1 mg/mL primocin (InvivoGen, San Diego, CA, cat. ant-pm-2), 10% defined fetal bovine serum, heat inactivated (HyClone Laboratories Inc., Logan, UT, cat. SH30070.03HI), 50% L-WRN conditioned media (ATCC, cat. CRL-3276), 1.25 mM N-Acetyl-L-cysteine (Sigma-Aldrich, cat. A9165), 10 mM nicotinamide (Sigma-Aldrich, cat. N0636), 1X B-27 supplement (Thermo Fisher Scientific, cat. 17504044), 1X N-2 supplement (Thermo Fisher Scientific, cat. […]
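Also: spheroids exposed to compounds for one week.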
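For viability, T/C in this document: 100% = vehicle DMSO treated spheroids.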

| Compound | viability, T/C (compound alone 10 µM) | IC50 | also measured |
| --- | --- | --- | --- |
| CC1COCCN1c1cc(-c2ccnn2C)c2ccnc(-c3ccn[nH]3)c2n1 (configuration not stated) | – | – | viability, T/C (compound alone 0.316 µM): 22.4%, 36% [2023-11] and 7.45% [2023-12] |
| Nc1ccc(C#CCN(C(=O)Cc2ncc(C(F)(F)F)cc2C(F)(F)F)c2ccc(F)cc2)nn1 | 89.1, 108, 116, 106, 118, 109, 101, 103 (4×), 104, 96.5% | – | viability, T/C (compound alone 0.0316 µM): 104, 96.6, 87.3, 92.4, 95.4, 106, 95.5, 113, 96.4, 92.1, 108, 99.5, 102%; viability, T/C (compound alone 1 µM): 91.6 (2×), 107, 103, 104, 110 (2×), 105 (2×), 115, 93.6, 117, 96.5% |
| O=C(c1cc(Cc2n[nH]c(=O)c3ccccc23)ccc1F)N1CCN(C(=O)C2CC2)CC1 | – | < 31.6 nM, > 10 µM [2023-11] and > 10 µM [2023-12] | – |
| Cc1cccc(N(C)C(=O)C2C(O)CCN2c2nc(C)cc(C(F)(F)F)c2C#N)c1 (configuration not stated) | 104, 102 (3×), 99.5, 110, 101, 103% [2023-11] and 87.4, 80.8, 90.3 (2×), 89.4% [2023-12] | – | – |
| CC(C)n1c(=O)n(C)c2cnc3cc(F)c(-c4ccc(OCCCN5CCCCC5)nc4)cc3c21 | – | < 31.6 nM, > 10 µM [2023-11] and > 10 µM [2023-12] | – |

— PubChem BioAssay AID1963842 (Molecular Pharmacology Branch, DTP, NCI, 2024)
